# From the supplement of paper PMC8728848
# The list shows a part of the results.
# B1: CD83 (Homo sapiens) (protein)
# chain: MSRGLQLLLLSCAYSLAPATPEVKVACSEDVDLPCTAPWDPQVPYTVSWVKLLEGGEERMETPQEDHLRGQHYHQKGQNGSFDAPNERPYSLKIRNTTSCNSGTYRCTLQDPDGQRNLSGKVILRVTGCPAQRKEETFKKYRAETSEQKLISEEDLSRGSDDDDKAEPRGP
# Experiments:
# Assay in all cases: glycan array binding signal (z-score within array); higher = stronger binding
# Details in all cases: glycan notation: IUPAC condensed, linker removed
# Gal(a1-4)Gal(b1-4)GlcNAc = target: Gal(a1-4)Gal(b1-4)GlcNAc
# Outline: (§1)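 From the Consortium for Functional Glycomics database, 3228 arrays were curated, keeping only those whose protein sequence was available. Binding is given as a within-array Z-score averaged across arrays sharing a protein sequence and across linkers. Negative Z-scores can be read as non-binding.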
# Gal(a1-4)GlcNAc = target: Gal(a1-4)GlcNAc
# Outline: as §1
# Gal(a1-6)Glc = target: Gal(a1-6)Glc
# Outline: as §1
# Gal(b1-2)Gal = target: Gal(b1-2)Gal
# Outline: as §1
# Gal(b1-3)Gal = target: Gal(b1-3)Gal
# Outline: as §1
# Gal(b1-3)Gal(b1-4)GlcNAc = target: Gal(b1-3)Gal(b1-4)GlcNAc
# Outline: as §1
# Gal(b1-3)GalNAc = target: Gal(b1-3)GalNAc
# Outline: as §1
# [1] = target: Gal(b1-3)GalNAc(b1-3)Gal(a1-4)Gal(b1-4)Glc
# Outline: as §1
# [2] = target: Gal(b1-3)GalNAc(b1-4)Gal(b1-4)Glc
# Outline: as §1
# [3] = target: Gal(b1-3)GalNAc(b1-4)[Neu5Ac(a2-3)]Gal(b1-4)Glc
# Outline: as §1
# Gal(b1-3)GlcNAc = target: Gal(b1-3)GlcNAc
# Outline: as §1
# [4] = target: Gal(b1-3)GlcNAc(b1-2)Man(a1-3)[Gal(b1-3)GlcNAc(b1-2)Man(a1-6)]Man(b1-4)GlcNAc(b1-4)GlcNAc
# Outline: as §1
# [5] = target: Gal(b1-3)GlcNAc(b1-3)Gal(b1-3)GlcNAc
# Outline: as §1
# [6] = target: Gal(b1-3)GlcNAc(b1-3)Gal(b1-4)Glc
# Outline: as §1
# [7] = target: Gal(b1-3)GlcNAc(b1-3)Gal(b1-4)GlcNAc
# Outline: as §1
# [8] = target: Gal(b1-3)[Fuc(a1-4)]GlcNAc
# Outline: as §1
# [9] = target: Gal(b1-3)[Fuc(a1-4)]GlcNAc(b1-3)Gal(b1-3)[Fuc(a1-4)]GlcNAc
# Outline: as §1
# [10] = target: Gal(b1-3)[Fuc(a1-4)]GlcNAc(b1-3)Gal(b1-4)GlcNAc
# Outline: as §1
# [11] = target: Gal(b1-3)[Fuc(a1-4)]GlcNAc(b1-3)Gal(b1-4)[Fuc(a1-3)]GlcNAc
# Outline: as §1
# [12] = target: Gal(b1-3)[GlcNAc(b1-6)]GalNAc
# Outline: as §1
# [13] = target: Gal(b1-3)[Neu5Ac(a2-6)]GalNAc
# Outline: as §1
# [14] = target: Gal(b1-3)[Neu5Ac(a2-6)]GlcNAc(b1-4)Gal(b1-4)Glc
# Outline: as §1
# [15] = target: Gal(b1-3)[Neu5Ac(a2-6)]GlcNAc(b1-6)Gal(b1-4)Glc
# Outline: as §1
# [16] = target: Gal(b1-3)[Neu5Ac(b2-6)]GalNAc
# Outline: as §1
# [17] = target: Gal(b1-4)GalNAc(a1-3)[Fuc(a1-2)]Gal(b1-4)GlcNAc
# Outline: as §1
# [18] = target: Gal(b1-4)GalNAc(b1-3)[Fuc(a1-2)]Gal(b1-4)GlcNAc
# Outline: as §1
# Gal(b1-4)Glc = target: Gal(b1-4)Glc
# Outline: as §1
# Gal(b1-4)Glc6S = target: Gal(b1-4)Glc6S
# Outline: as §1
# Gal(b1-4)GlcNAc = target: Gal(b1-4)GlcNAc
# Outline: as §1
# [19] = target: Gal(b1-4)GlcNAc(a1-6)Gal(b1-4)GlcNAc
# Outline: as §1
# [20] = target: Gal(b1-4)GlcNAc(b1-2)Man(a1-3)[Gal(b1-4)GlcNAc(b1-2)Man(a1-6)]Man(b1-4)GlcNAc(b1-4)GlcNAc
# Outline: as §1
# [21] = target: Gal(b1-4)GlcNAc(b1-3)Gal(b1-3)GlcNAc
# Outline: as §1
# [22] = target: Gal(b1-4)GlcNAc(b1-3)Gal(b1-4)Glc
# Outline: as §1
# [23] = target: Gal(b1-4)GlcNAc(b1-3)Gal(b1-4)GlcNAc
# Outline: as §1
# [24] = target: Gal(b1-4)GlcNAc(b1-3)Gal(b1-4)GlcNAc(b1-3)Gal(b1-4)GlcNAc
# Outline: as §1
# [25] = target: Gal(b1-4)GlcNAc(b1-3)Gal(b1-4)[Fuc(a1-3)]GlcNAc(b1-3)Gal(b1-4)[Fuc(a1-3)]GlcNAc
# Outline: as §1
# [26] = target: Gal(b1-4)GlcNAc(b1-3)GalNAc
# Outline: as §1
# [27] = target: Gal(b1-4)GlcNAc(b1-3)[Gal(b1-4)GlcNAc(b1-6)]Gal(b1-4)GlcNAc
# Outline: as §1
# [28] = target: Gal(b1-4)GlcNAc(b1-3)[Gal(b1-4)GlcNAc(b1-6)]GalNAc
# Outline: as §1
# [29] = target: Gal(b1-4)GlcNAc(b1-3)[GlcNAc(b1-6)]Gal(b1-4)GlcNAc
# Outline: as §1
# [30] = target: Gal(b1-4)GlcNAc(b1-6)Gal(b1-4)GlcNAc
# Outline: as §1
# [31] = target: Gal(b1-4)GlcNAc(b1-6)Gal(b1-4)GlcNAc(b1-6)GalNAc
# Outline: as §1
# [32] = target: Gal(b1-4)GlcNAc(b1-6)GalNAc
# Outline: as §1
# [33] = target: Gal(b1-4)GlcNAc(b1-6)[Gal(b1-3)]GalNAc
# Outline: as §1
# Gal3S(b1-3)GalNAc = target: Gal3S(b1-3)GalNAc
# Outline: as §1
binder,measurement,setting,value
B1,glycan array binding signal (z-score),Gal(a1-4)Gal(b1-4)GlcNAc,-0.203
same,glycan array binding signal (z-score),Gal(a1-4)GlcNAc,-0.298
same,glycan array binding signal (z-score),Gal(a1-6)Glc,-0.204
same,glycan array binding signal (z-score),Gal(b1-2)Gal,-0.222
same,glycan array binding signal (z-score),Gal(b1-3)Gal,0.051
same,glycan array binding signal (z-score),Gal(b1-3)Gal(b1-4)GlcNAc,-0.143
same,glycan array binding signal (z-score),Gal(b1-3)GalNAc,-0.22
same,glycan array binding signal (z-score),[1],-0.322
same,glycan array binding signal (z-score),[2],-0.09
same,glycan array binding signal (z-score),[3],-0.465
same,glycan array binding signal (z-score),Gal(b1-3)GlcNAc,-0.134
same,glycan array binding signal (z-score),[4],-0.207
same,glycan array binding signal (z-score),[5],-0.226
same,glycan array binding signal (z-score),[6],-0.32
same,glycan array binding signal (z-score),[7],-0.163
same,glycan array binding signal (z-score),[8],-0.111
same,glycan array binding signal (z-score),[9],0.148
same,glycan array binding signal (z-score),[10],-0.144
same,glycan array binding signal (z-score),[11],-0.243
same,glycan array binding signal (z-score),[12],-0.169
same,glycan array binding signal (z-score),[13],-0.337
same,glycan array binding signal (z-score),[14],0.089
same,glycan array binding signal (z-score),[15],-0.336
same,glycan array binding signal (z-score),[16],-0.341
same,glycan array binding signal (z-score),[17],-0.434
same,glycan array binding signal (z-score),[18],-0.059
same,glycan array binding signal (z-score),Gal(b1-4)Glc,-0.266
same,glycan array binding signal (z-score),Gal(b1-4)Glc6S,-0.254
same,glycan array binding signal (z-score),Gal(b1-4)GlcNAc,-0.322
same,glycan array binding signal (z-score),[19],-0.353
same,glycan array binding signal (z-score),[20],-0.408
same,glycan array binding signal (z-score),[21],-0.048
same,glycan array binding signal (z-score),[22],-0.31
same,glycan array binding signal (z-score),[23],0.647
same,glycan array binding signal (z-score),[24],-0.142
same,glycan array binding signal (z-score),[25],-0.087
same,glycan array binding signal (z-score),[26],-0.359
same,glycan array binding signal (z-score),[27],-0.335
same,glycan array binding signal (z-score),[28],-0.236
same,glycan array binding signal (z-score),[29],-0.242
same,glycan array binding signal (z-score),[30],-0.226
same,glycan array binding signal (z-score),[31],-0.298
same,glycan array binding signal (z-score),[32],-0.071
same,glycan array binding signal (z-score),[33],-0.225
same,glycan array binding signal (z-score),Gal3S(b1-3)GalNAc,-0.147
